Source: a collection of fitness landscapes (doi:10.1016/j.celrep.2020.107928)
The full ranking holds about 81,000 sequences; the median of “one-hybrid fitness for binding NBS DNA” is about -0.1, and the highest 2% start at about 0.36. This is one part of the list.

B1: Caulobacter ParB omega fusion; a variant is named by its letters at X, in order, B8GW30 (parent)
chain: MESVVVGEPGMSEGRRGLGRGLSALLGEVDAAPAQAPGEQLGGSREAPIEILQRNPDQPRRTFREEDLEDLSNSIREKGVLQPILVRPSPDTAGEYQIVAGERAWRAAQRAGLKTVPIMVRELDDLAVLEIGIIENVQRADLNVLEEALSYKVLMEKFERTQENIAQTIGKSXSHVANXMRLLXLPDEVQSYLVSGELTAXHARAIAAAADPVALAKQIIEGGLSVRETEALARKAPNLSAGKSKGGRPPRVKDTDTQALESDLSSVLGLDVSIDHRGSTGTLTITYATLEQLDDLCNRLTRGI

Variants of: B1
Assay: one-hybrid fitness for binding NBS DNA (the Noc-binding site; scaled: cognate 1, non-cognate 0); higher = stronger binding
Conditions: with NBS DNA site
How it was run: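 Selection: bacterial one-hybrid in E. coli USO, HIS3 reporter with the site 19 bp from the promoter, 48 hours at 37°C on M9-minus-histidine plus 0.1 mM IPTG and 5 mM 3-AT. Libraries were Caulobacter ParB with four randomised specificity codons, sequenced on Illumina before and after selection. Fitness is the rescaled log change in variant-to-wild-type read ratio, anchored to the cognate and non-cognate sites.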

one-hybrid fitness for binding NBS DNA, 0.269:
GPKR

one-hybrid fitness for binding NBS DNA, ≤ 0.2:
VKEL
QERT
DSGR
HDHG
QQGV
GRCV
VPPI
VLAV
PWTV
QYHK
SRTE
ECNL
KHRC
RWMD
RIDN
PWYR
DMEP
IHHT
KELC
TPEF
QKIN
FIAS
SFCM
IGLS
CRAK
NGQP
CSIK
RYLK
STIG
PVAA
DLKK
VLML
PHFE
VPPG
GWHR
EQVF
IAVR
GAVV
DSPA
YFKY
ARSY
PSIE
YHSS
VEKS
QEAC
MKYL
QEQD
WARQ
FAKM
QIRP
KTMH
TYIR
RQCK
SYSS
CLPT
MNNR
FLPA
SSPC
FEKY
AGSG
TLDD
TLLK
SPFT
YQNT
EKFS
VNHM
LNSD
IHPV
ILPW
LEPK
YYNG
RPNS
SAFV
FISG
MDST
CPRN
PSDT
GSWT
TYEG
MTTE
GSCS
AYEM
SEHR
NTPA
RSDR
TEWG
KQGL
RYPF
SSIS
STCH
PRRE
PALM
GNQD
DMDR
IYDC
RHRQ
IYWR
RYYI
MLRS
CWCR
NGRK
AIPN
YSMA
GCSR
DVTG
YGTY
CDRN
LSRA
ENSA
SHCE
NMRM
SPRK
HPPY
IPSH
DGAG
RELY
RHLW
DNTC
IACR
YSDG
TMHE
STVQ
QDRS
GQVC
CSNC
PWVP
QKHW
AESR
YHYM
RTSE
PSSV
RLGQ
MSKE
PQEN
DAHC
TRAQ
VCHC
INSL
LDER
VDVI
SRSI
YTES
RPLI
LSDT
NRGK
CALC
QKAK
VGSR
TDGS

one-hybrid fitness for binding NBS DNA, 0.334:
QRMM

one-hybrid fitness for binding NBS DNA, 0.245:
QTTM

one-hybrid fitness for binding NBS DNA, 0.562:
QCLR
